B1: COV2-114-1-Fc (Fc fusion)
chain: QLQLVESGGDLVQPGESLRLSCVASGLSLEHYAIGWFRQAPGKEREGVSCISDSGATRSYADSVRGRFTISRENAKNAVYLEMNSLKPEDTAVYYCSATPGAFRTCAFRDFSHLANWGQGTQVTVSS[human IgG1 Fc with changes not listed]
B2: COV2-116-9-Fc (Fc fusion)
chain: QLQLVESGGDLVQPGESLRLSCVASGFTLDYYAIGWFRQAPGKEREGVSCISSSGTSTSYADSVRGRFTISRENAKNAVYLEMNSLKPEDTAVYYCAALQGSYYYTSLHQTEYDYWGQGTQVTVSS[human IgG1 Fc with changes not listed]
B3: COV2-171-11-Fc (Fc fusion)
chain: QLQLVESGGDLVQPGESLRLSCVASGFTLDYYAIGWFRQAPGKEREGVSCISPSGTSTSYADSVRGRFTISRENAKNAVYLEMNSLKPEDTAVYYCAAANPSYYYCSGYPHEYDDWGQGTQVTVSS[human IgG1 Fc with changes not listed]
B4: COV2-187-2-Fc (Fc fusion)
chain: QLQLVESGGDLVQPGESLRLSCVASGLSLEHYAIGWFRQAPGKEREGVSCIDSSGGSTSYADSVRGRFTISRENAKNAVYLEMNSLKPEDTAVYYCAALQGSYYYTSLHQTEYDYWGQGTQVTVSS[human IgG1 Fc with changes not listed]
B5: COV2-120-17-Fc (Fc fusion)
chain: QLQLVESGGDLVQPGESLRLSCVASGHTGSTYIIGWFRQAPGKEREGVSCISRSGILRSYADSVRGRFTISRENAKNAVYLEMNSLKPEDTAVYYCAARDSLTGVIGNTPGEYDYWGQGTQVTVSS[human IgG1 Fc with changes not listed]
B6: COV2-153-18-Fc (Fc fusion)
chain: QLQLVESGGDLVQPGESLRLSCVASGRTVSSYVIGWFRQAPGKEREGVSCISRSGIITSYADSVRGRFTISRENAKNAVYLEMNSLKPEDTAVYYCAAAQTQVLPTEDRSYDYWGQGTQVTVSS[human IgG1 Fc with changes not listed]
B7: COV2-39-19-Fc (Fc fusion)
chain: QLQLVESGGDLVQPGESLRLSCVASGRTFTRYPIGWFRQAPGKEREGVSCISGSGIITSYADSVRGRFTISRENAKNAVYLEMNSLKPEDTAVYYCAVDNAPTSSLPLTPGEYDYWGQGTQVTVSS[human IgG1 Fc with changes not listed]
B8: COV2-124-20-Fc (Fc fusion)
chain: QLQLVESGGDLVQPGESLRLSCVASGRTFSSYAIGWFRQAPGKEREGVSCISSGGITSYADSVRGRFTISRENAKNAVYLEMNSLKPEDTAVYYCAANRGRFTGWRSLTDYTYWGQGTQVTVSS[human IgG1 Fc with changes not listed]
B9: COV2-18-21-Fc (Fc fusion)
chain: QLQLVESGGDLVQPGESLRLSCVASGRTFSTYAIGWFRQAPGKEREGVSCISPSRIITSYADSVRGRFTISRENAKNAVYLEMNSLKPEDTAVYYCAADSSYGGRLGRRIDDYEYWGQGTQVTVSS[human IgG1 Fc with changes not listed]
B10: COV2-360-3-Fc (Fc fusion)
chain: QLQLVESGGDLVQPGESLRLSCVASGFTLDSYAIGWFRQAPGKEREGVSCITKHGGTTSYADSVRGRFTISRENAKNAVYLEMNSLKPEDTAVYYCAADHRALRFGCAVVPGPYDYWGQGTQVTVSS[human IgG1 Fc with changes not listed]
B11: COV2-151-23-Fc (Fc fusion)
chain: QLQLVESGGDLVQPGESLRLSCVASASGRTSSTIGWFRQAPGKEREGVSCITWSGGSTSYADSVRGRFTISRENAKNAVYLEMNSLKPEDTAVYYCAAGLSPLMLTASRRYEYWGQGTQVTVSS[human IgG1 Fc with changes not listed]
B12: COV2-214-24-Fc (Fc fusion)
chain: QLQLVESGGDLVQPGESLRLSCVASGRTVSMYAIGWFRQAPGKEREGVSCISRSGRSTSYADSVRGRFTISRENAKNAVYLEMNSLKPEDTAVYYCAARDGGLHYALYVEASHYNYWGQGTQVTVSS[human IgG1 Fc with changes not listed]
B13: COV2-331-25-Fc (Fc fusion)
chain: QLQLVESGGDLVQPGESLRLSCVASGFTFSSYAIGWFRQAPGKEREGVSCLDVTGRSTSYADSVRGRFTISRENAKNAVYLEMNSLKPEDTAVYYCAAVYTPFRFAFKTDPDRQDHWGQGTQVTVSS[human IgG1 Fc with changes not listed]
B14: COV2-32-26-Fc (Fc fusion)
chain: QLQLVESGGDLVQPGESLRLSCVASGRTFGTYRIGWFRQAPGKEREGVSCIFWSGGGASYADSVRGRFTISRENAKNAVYLEMNSLKPEDTAVYYCAARAPTTQEYDYWGQGTQVTVSS[human IgG1 Fc with changes not listed]
B15: COV2-143-4-Fc (Fc fusion)
chain: QLQLVESGGDLVQPGESLRLSCVASGLTLNNNTIGWFRQAPGKEREGVSCISPSGIVTSYADSVRGRFTISRENAKNAVYLEMNSLKPEDTAVYYCAVLQWNGAGLPSPLGSWGQGTQVTVSS[human IgG1 Fc with changes not listed]

Legend:
[1] = target: T1, HCoV-NL63 Spike protein, full length, C-terminally fused with EGFP (HCoV-NL63, UniProt Q6Q1S2 19-1356); test: flow cytometry, HEK293 cells expressing full-length Spike-EGFP, anti-hIg-PE
T1 construct: whole, on cells
T1 sequence: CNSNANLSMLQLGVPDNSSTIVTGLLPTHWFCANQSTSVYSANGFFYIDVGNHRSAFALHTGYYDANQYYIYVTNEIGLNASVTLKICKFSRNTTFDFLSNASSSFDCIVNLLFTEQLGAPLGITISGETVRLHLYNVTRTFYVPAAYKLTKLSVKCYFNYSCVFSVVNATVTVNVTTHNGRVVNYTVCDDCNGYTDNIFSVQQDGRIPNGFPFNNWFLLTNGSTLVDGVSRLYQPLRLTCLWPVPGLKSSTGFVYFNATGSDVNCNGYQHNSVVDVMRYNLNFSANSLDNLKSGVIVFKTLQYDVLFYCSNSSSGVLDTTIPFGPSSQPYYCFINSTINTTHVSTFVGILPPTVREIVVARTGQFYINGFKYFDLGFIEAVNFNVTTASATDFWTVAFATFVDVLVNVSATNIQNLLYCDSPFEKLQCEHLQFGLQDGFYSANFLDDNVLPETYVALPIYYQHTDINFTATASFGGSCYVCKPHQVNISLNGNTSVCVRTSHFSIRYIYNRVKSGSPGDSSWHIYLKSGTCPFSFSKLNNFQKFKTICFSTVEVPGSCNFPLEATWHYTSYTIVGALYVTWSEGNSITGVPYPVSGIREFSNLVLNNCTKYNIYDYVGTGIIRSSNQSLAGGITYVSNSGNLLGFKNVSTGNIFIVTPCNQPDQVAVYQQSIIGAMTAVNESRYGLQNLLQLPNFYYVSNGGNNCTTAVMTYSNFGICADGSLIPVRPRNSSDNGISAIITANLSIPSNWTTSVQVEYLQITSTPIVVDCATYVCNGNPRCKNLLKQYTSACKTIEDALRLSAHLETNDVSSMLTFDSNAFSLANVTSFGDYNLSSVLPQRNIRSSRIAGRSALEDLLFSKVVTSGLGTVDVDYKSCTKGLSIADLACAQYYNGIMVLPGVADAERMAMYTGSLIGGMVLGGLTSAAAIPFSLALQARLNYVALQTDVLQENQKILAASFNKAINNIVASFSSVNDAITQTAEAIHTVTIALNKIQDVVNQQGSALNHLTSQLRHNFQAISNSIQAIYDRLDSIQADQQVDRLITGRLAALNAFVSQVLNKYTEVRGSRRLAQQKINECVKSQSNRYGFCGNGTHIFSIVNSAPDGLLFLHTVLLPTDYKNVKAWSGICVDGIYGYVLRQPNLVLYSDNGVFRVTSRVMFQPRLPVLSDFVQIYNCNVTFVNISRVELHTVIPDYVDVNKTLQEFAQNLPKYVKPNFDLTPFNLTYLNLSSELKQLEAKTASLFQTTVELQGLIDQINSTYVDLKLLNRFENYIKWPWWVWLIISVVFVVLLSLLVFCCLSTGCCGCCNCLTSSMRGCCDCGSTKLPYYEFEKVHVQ

[2] = target: T2, HCoV-229E Spike protein, full length, C-terminally fused with EGFP (HCoV-229E, UniProt P15423 16-1173); test: as above
T2 construct: whole, on cells
T2 sequence: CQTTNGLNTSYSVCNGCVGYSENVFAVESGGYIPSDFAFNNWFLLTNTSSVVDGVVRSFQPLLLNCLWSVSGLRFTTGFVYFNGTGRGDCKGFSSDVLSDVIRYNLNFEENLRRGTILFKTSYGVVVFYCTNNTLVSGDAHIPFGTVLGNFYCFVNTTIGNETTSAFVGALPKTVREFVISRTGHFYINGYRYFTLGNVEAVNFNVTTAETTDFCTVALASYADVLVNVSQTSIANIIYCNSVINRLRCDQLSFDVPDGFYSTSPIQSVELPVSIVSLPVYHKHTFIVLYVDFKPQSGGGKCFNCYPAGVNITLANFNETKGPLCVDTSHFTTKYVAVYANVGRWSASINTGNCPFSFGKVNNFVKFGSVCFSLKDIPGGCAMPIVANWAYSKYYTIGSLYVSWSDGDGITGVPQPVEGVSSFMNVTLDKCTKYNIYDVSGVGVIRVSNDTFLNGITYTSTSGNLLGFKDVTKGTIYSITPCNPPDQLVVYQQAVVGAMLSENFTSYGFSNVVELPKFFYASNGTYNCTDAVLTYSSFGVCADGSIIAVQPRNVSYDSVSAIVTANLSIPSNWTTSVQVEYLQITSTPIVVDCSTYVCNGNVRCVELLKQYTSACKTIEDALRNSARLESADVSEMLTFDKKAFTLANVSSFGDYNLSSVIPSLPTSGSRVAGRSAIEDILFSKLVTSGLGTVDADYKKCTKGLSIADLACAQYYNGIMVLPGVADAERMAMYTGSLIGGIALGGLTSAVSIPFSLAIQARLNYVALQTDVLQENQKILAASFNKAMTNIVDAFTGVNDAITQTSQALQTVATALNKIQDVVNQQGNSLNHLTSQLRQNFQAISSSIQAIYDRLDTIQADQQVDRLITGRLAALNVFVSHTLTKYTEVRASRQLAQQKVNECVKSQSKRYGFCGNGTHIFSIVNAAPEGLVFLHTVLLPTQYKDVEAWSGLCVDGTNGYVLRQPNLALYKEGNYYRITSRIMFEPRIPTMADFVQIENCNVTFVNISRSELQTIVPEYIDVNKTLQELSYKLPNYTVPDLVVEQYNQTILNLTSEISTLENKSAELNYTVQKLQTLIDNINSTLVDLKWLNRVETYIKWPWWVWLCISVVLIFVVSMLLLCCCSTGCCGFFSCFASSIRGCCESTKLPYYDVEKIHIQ

| Binder | binding result [1] | binding result [2] |
| --- | --- | --- |
| B1 | no binding | no binding |
| B2 | no binding | no binding |
| B3 | no binding | no binding |
| B4 | no binding | no binding |
| B5 | no binding | no binding |
| B6 | no binding | no binding |
| B7 | no binding | no binding |
| B8 | no binding | no binding |
| B9 | no binding | no binding |
| B10 | no binding | no binding |
| B11 | no binding | no binding |
| B12 | no binding | no binding |
| B13 | no binding | no binding |
| B14 | no binding | no binding |
| B15 | no binding | no binding |
